This is one part of the list.
Columns and labels:
Experiment in all cases: glycan array binding signal (z-score within array); higher = stronger binding
Conditions in all cases: glycan notation: IUPAC condensed, linker removed
[1] = biological target: Gal3S(b1-3)[Fuc(a1-4)]GlcNAc
How it was run: (§1)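 The binding signal is a Z-score computed within each array. Data were drawn from 3228 arrays in the Consortium for Functional Glycomics database, restricted to those with a known protein sequence. Scores were averaged over arrays of the same protein sequence at different concentrations or buffers, and over linkers, and negative values can be taken as non-binding.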

Gal3S(b1-4)Glc = biological target: Gal3S(b1-4)Glc
How it was run: as §1

Gal3S(b1-4)Glc6S = biological target: Gal3S(b1-4)Glc6S
How it was run: as §1

Gal3S(b1-4)GlcNAc = biological target: Gal3S(b1-4)GlcNAc
How it was run: as §1

Gal3S(b1-4)GlcNAc6S = biological target: Gal3S(b1-4)GlcNAc6S
How it was run: as §1

[2] = biological target: Gal3S(b1-4)[Fuc(a1-3)]Glc
How it was run: as §1

[3] = biological target: Gal3S(b1-4)[Fuc(a1-3)]Glc6S
How it was run: as §1

Gal3S4S(b1-4)GlcNAc = biological target: Gal3S4S(b1-4)GlcNAc
How it was run: as §1

Gal3S6S(b1-4)GlcNAc = biological target: Gal3S6S(b1-4)GlcNAc
How it was run: as §1

Gal3S6S(b1-4)GlcNAc6S = biological target: Gal3S6S(b1-4)GlcNAc6S
How it was run: as §1

Gal4S(b1-4)GlcNAc = biological target: Gal4S(b1-4)GlcNAc
How it was run: as §1

Gal4S6S(b1-4)GlcNAc = biological target: Gal4S6S(b1-4)GlcNAc
How it was run: as §1

Gal6S(b1-3)GlcNAc = biological target: Gal6S(b1-3)GlcNAc
How it was run: as §1

Gal6S(b1-3)GlcNAc6S = biological target: Gal6S(b1-3)GlcNAc6S
How it was run: as §1

Gal6S(b1-4)Glc = biological target: Gal6S(b1-4)Glc
How it was run: as §1

Gal6S(b1-4)Glc6S = biological target: Gal6S(b1-4)Glc6S
How it was run: as §1

Gal6S(b1-4)GlcNAc = biological target: Gal6S(b1-4)GlcNAc
How it was run: as §1

Gal6S(b1-4)GlcNAc6S = biological target: Gal6S(b1-4)GlcNAc6S
How it was run: as §1

GalNAc(a1-3)Gal = biological target: GalNAc(a1-3)Gal
How it was run: as §1

GalNAc(a1-3)GalNAc = biological target: GalNAc(a1-3)GalNAc
How it was run: as §1

[4] = biological target: GalNAc(a1-3)GalNAc(a1-3)Gal(a1-4)Gal(b1-4)GlcNAc
How it was run: as §1

[5] = biological target: GalNAc(a1-3)GalNAc(b1-3)Gal(a1-4)Gal(b1-4)Glc
How it was run: as §1

[6] = biological target: GalNAc(a1-3)GalNAc(b1-3)Gal(a1-4)Gal(b1-4)GlcNAc
How it was run: as §1

GalNAc(b1-3)Gal = biological target: GalNAc(b1-3)Gal
How it was run: as §1

[7] = biological target: GalNAc(b1-3)Gal(a1-4)Gal(b1-4)GlcNAc
How it was run: as §1

[8] = biological target: GalNAc(b1-3)Gal(a1-4)Gal(b1-4)GlcNAc(b1-3)Gal(b1-4)Glc
How it was run: as §1

[9] = biological target: GalNAc(b1-3)Gal(a1-6)Gal(b1-4)Glc
How it was run: as §1

GalNAc(b1-3)GalNAc = biological target: GalNAc(b1-3)GalNAc
How it was run: as §1

GalNAc(b1-4)Gal(b1-4)Glc = biological target: GalNAc(b1-4)Gal(b1-4)Glc
How it was run: as §1

GalNAc(b1-4)GlcNAc = biological target: GalNAc(b1-4)GlcNAc
How it was run: as §1

[10] = biological target: GalNAc(b1-4)GlcNAc(b1-2)Man(a1-3)[GalNAc(b1-4)GlcNAc(b1-2)Man(a1-6)]Man(b1-4)GlcNAc(b1-4)GlcNAc
How it was run: as §1

GalNAc(b1-6)GalNAc = biological target: GalNAc(b1-6)GalNAc
How it was run: as §1

Glc(a1-4)Glc = biological target: Glc(a1-4)Glc
How it was run: as §1

[11] = biological target: Glc(a1-4)Glc(a1-4)Glc(a1-4)Glc
How it was run: as §1

Glc(a1-6)Glc(a1-6)Glc = biological target: Glc(a1-6)Glc(a1-6)Glc
How it was run: as §1

[12] = biological target: Glc(a1-6)Glc(a1-6)Glc(a1-6)Glc
How it was run: as §1

Glc(b1-4)Glc = biological target: Glc(b1-4)Glc
How it was run: as §1

B1: UEA-I (Ulex europaeus), P22972 (protein)
chain: SDDLSFKFKNFSQNGKDLSFQGDASVIETGVLQLNKVGNNLPDETGGIARYIAPIHIWNCNTGEVASFITSFSFFMETSANPKAATDGLTFFLAPPDSPLRRAGGYFGLFEDTKDNDSSYQTVAVEFDTIGSPVNFDDPGFPHIGIDVNRVKSINAERWNKRYGLNNVANVEIIYEASSKTLTASLTYPSDQTSISVTSIVDLKEILPEWVSVGFSGGTYIGRQATHEVLNWYFTSNLIN
glycan array binding signal (z-score) [1]: -0.182 | glycan array binding signal (z-score) (Gal3S(b1-4)Glc): -0.183 | glycan array binding signal (z-score) (Gal3S(b1-4)Glc6S): -0.038 | glycan array binding signal (z-score) (Gal3S(b1-4)GlcNAc): -0.175 | glycan array binding signal (z-score) (Gal3S(b1-4)GlcNAc6S): -0.174 | glycan array binding signal (z-score) [2]: -0.187 | glycan array binding signal (z-score) [3]: -0.171 | glycan array binding signal (z-score) (Gal3S4S(b1-4)GlcNAc): -0.179 | glycan array binding signal (z-score) (Gal3S6S(b1-4)GlcNAc): -0.176 | glycan array binding signal (z-score) (Gal3S6S(b1-4)GlcNAc6S): -0.174 | glycan array binding signal (z-score) (Gal4S(b1-4)GlcNAc): -0.187 | glycan array binding signal (z-score) (Gal4S6S(b1-4)GlcNAc): -0.18 | glycan array binding signal (z-score) (Gal6S(b1-3)GlcNAc): -0.186 | glycan array binding signal (z-score) (Gal6S(b1-3)GlcNAc6S): -0.169 | glycan array binding signal (z-score) (Gal6S(b1-4)Glc): -0.184 | glycan array binding signal (z-score) (Gal6S(b1-4)Glc6S): -0.18 | glycan array binding signal (z-score) (Gal6S(b1-4)GlcNAc): -0.188 | glycan array binding signal (z-score) (Gal6S(b1-4)GlcNAc6S): -0.172 | glycan array binding signal (z-score) (GalNAc(a1-3)Gal): -0.179 | glycan array binding signal (z-score) (GalNAc(a1-3)GalNAc): -0.182 | glycan array binding signal (z-score) [4]: -0.184 | glycan array binding signal (z-score) [5]: -0.187 | glycan array binding signal (z-score) [6]: -0.173 | glycan array binding signal (z-score) (GalNAc(b1-3)Gal): -0.18 | glycan array binding signal (z-score) [7]: -0.179 | glycan array binding signal (z-score) [8]: -0.167 | glycan array binding signal (z-score) [9]: -0.175 | glycan array binding signal (z-score) (GalNAc(b1-3)GalNAc): -0.174 | glycan array binding signal (z-score) (GalNAc(b1-4)Gal(b1-4)Glc): -0.17 | glycan array binding signal (z-score) (GalNAc(b1-4)GlcNAc): -0.009 | glycan array binding signal (z-score) [10]: -0.173 | glycan array binding signal (z-score) (GalNAc(b1-6)GalNAc): -0.187 | glycan array binding signal (z-score) (Glc(a1-4)Glc): -0.177 | glycan array binding signal (z-score) [11]: -0.186 | glycan array binding signal (z-score) (Glc(a1-6)Glc(a1-6)Glc): -0.177 | glycan array binding signal (z-score) [12]: -0.177 | glycan array binding signal (z-score) (Glc(b1-4)Glc): -0.178

Source: the supplement of paper PMC8728848
